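Grown in 96-well plates, cells were treated for 48 hours with each compound at five concentrations. Insufficient inhibition: endpoint recorded as highest concentration tested. At the GI50, growth is halved. TGI marks complete inhibition of growth.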
The molecules below were run on NCI-H322M lung (assay: NCI-60 cell line screen, 48 h).

In order of falling GI50:
1. ClC(Cn1ncc2c(Nc3cccc(Br)c3)nc(SCCN3CCOCC3)nc21)c1ccc(Br)cc1 (stereo unspecified)  41.4 µM
2. COc1ccc2[nH]c(=O)cc(-n3ncc(C(=O)/C=C/c4cc(OC)c(OC)c(OC)c4)c3C)c2c1  9.03 µM
3. COc1cc(/C=C/C(=O)c2cc(OC)c(OC)c(OC)c2)ccc1Oc1nc(Nc2ccc(F)cc2)nc(N(C)C)n1  2.99 µM

COc1ccc2[nH]c(=O)cc(-n3ncc(C(=O)/C=C/c4cc(OC)c(OC)c(OC)c4)c3C)c2c1 and COc1cc(/C=C/C(=O)c2cc(OC)c(OC)c(OC)c2)ccc1Oc1nc(Nc2ccc(F)cc2)nc(N(C)C)n1 are within 1.5-fold of each other in TGI: 21.2 µM for the first, 20.9 µM for the second.

In the case of ClC(Cn1ncc2c(Nc3cccc(Br)c3)nc(SCCN3CCOCC3)nc21)c1ccc(Br)cc1 (stereo unspecified), the TGI is reported as greater than 100 µM.
